Out of some 310,000 compounds screened, about 14,000 (4.5%) showed an effect of 50% or more. The effect is printed as a negative number. This is one part of the list.
These compounds were tested against human ether-à-go-go-related gene (hERG) potassium channel (human, UniProt Q12809) (assay: primary screen, population patch clamp on CHO cells stably expressing hERG).
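Also: peak tail current of the secondary pulse compared with the same well before compound.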

Sequence of human ether-à-go-go-related gene (hERG) potassium channel (Q12809 whole entry, looked up): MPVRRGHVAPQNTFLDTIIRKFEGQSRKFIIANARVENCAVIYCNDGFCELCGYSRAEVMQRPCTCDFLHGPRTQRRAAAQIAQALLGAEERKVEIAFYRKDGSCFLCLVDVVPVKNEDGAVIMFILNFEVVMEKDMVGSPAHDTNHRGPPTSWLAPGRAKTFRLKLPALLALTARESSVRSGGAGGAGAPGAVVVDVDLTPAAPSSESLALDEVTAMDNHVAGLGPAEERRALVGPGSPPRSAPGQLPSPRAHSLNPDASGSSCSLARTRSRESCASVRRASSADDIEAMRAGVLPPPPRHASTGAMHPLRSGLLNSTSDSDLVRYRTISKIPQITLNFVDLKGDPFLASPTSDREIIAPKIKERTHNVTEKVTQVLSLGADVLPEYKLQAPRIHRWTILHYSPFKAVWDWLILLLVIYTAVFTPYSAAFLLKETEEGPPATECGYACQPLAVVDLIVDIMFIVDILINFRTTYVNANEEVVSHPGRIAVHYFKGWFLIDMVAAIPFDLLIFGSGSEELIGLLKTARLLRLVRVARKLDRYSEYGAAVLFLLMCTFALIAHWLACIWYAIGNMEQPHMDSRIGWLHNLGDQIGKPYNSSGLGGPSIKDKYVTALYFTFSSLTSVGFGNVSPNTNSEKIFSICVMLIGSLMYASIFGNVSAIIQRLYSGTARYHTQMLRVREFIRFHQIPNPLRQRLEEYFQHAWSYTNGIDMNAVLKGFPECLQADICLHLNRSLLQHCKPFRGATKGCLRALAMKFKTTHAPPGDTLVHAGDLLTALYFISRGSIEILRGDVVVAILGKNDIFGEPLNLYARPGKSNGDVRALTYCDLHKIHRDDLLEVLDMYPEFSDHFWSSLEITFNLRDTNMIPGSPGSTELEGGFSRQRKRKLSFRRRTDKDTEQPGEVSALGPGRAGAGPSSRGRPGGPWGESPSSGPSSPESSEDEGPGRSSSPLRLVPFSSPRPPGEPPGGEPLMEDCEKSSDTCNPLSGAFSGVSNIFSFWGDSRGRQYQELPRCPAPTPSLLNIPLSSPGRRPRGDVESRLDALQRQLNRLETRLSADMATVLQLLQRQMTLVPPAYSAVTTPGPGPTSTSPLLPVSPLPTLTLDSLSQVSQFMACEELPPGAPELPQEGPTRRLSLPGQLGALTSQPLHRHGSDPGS

SMILES | hERG current change (%, negative = inhibition) at 10uM [%]
COc1ccc(Cc2c[nH]c(=O)[nH]c2=O)cc1 | -1.29
COc1ccc(NC(=O)CSc2nccn2Cc2ccc(F)cc2)c(OC)c1 | -21.1
COc1ccc(OC)c(S(=O)(=O)N2CCC(C(=O)N3CCCC3)CC2)c1 | 7.71
Cc1ccc(NC(=O)COc2ccc3c(c2)OCO3)c(C)c1 | 2.77
CN(NC(=O)c1ccccc1F)c1nc(C(F)(F)F)nc2ccccc12 | -12.2
CN1C[N+]([O-])=C(c2ccccc2)C1(C)C | 11.2
CCOC(=O)c1sc(NC(=O)c2c(CC)noc2C)nc1C | -15.2
NS(=O)(=O)c1ccc(CNC(=O)C2(c3ccc(Cl)cc3)CC2)cc1 | 8.76
O=C(O)CSc1nnc2n(-c3ccccc3)c(=O)c3ccccc3n12 | -10.3
O=C(Cc1nnc(NC(=O)Nc2ccc(F)cc2)s1)Nc1ccccc1 | 12.1
O=C(OCC(F)(F)F)c1cccc(COc2ccc3ccccc3c2)c1 | 3.14
c1ccc(Cc2noc(CN3CCCN(C4Cc5ccccc5C4)CC3)n2)cc1 | -80
COC(=O)C[C@H]1c2cc(F)ccc2S(=O)(=O)N1c1ccc(N(C)C)cc1 | 14.4
Cc1nn(C(=O)c2cccc([N+](=O)[O-])c2)c(C)c1Br | 4.02
COc1ccccc1C(CCN(Cc1cccs1)C(C)=O)c1ccco1 (centres unmarked) | -2.93
CC(NS(=O)(=O)c1ccccc1)C(=O)NC1CCCC1 (centres unmarked) | 0.0711
O=c1[nH]c(/C=C/c2cccnc2)c([N+](=O)[O-])c(=O)[nH]1 | 31.7
CCc1c(C)nc2cc(-c3ccc(OC)c(OC)c3)nn2c1N1CCCC1 | 8.35
CCCCc1c(C)c2cc(C)ccc2[nH]c1=O | 11.4
COc1ccc(S(=O)(=O)Nc2ccc(N3CCOCC3)nc2)cc1 | 8.55
Cc1ccc2c3c([nH]c2c1)C(=O)CC(C)(C)S3 | 13
COc1ccc(CNCC(O)COc2ccc(C)cc2[N+](=O)[O-])cc1 (centres unmarked) | -71.2

SMILES | hERG current change (%, negative = inhibition) at 10uM [%]
CSc1nc(-c2ccco2)nn1S(=O)(=O)c1ccccc1 | 4.41
C=CCSc1nnnn1-c1ccc(OC)cc1 | -20
COc1cc(C(=O)Nc2nc3ccc(S(=O)(=O)N4CCOCC4)cc3s2)cc(OC)c1OC | -5.58
Cc1cn(-c2cc(NC(=O)c3ccc(C)c(NC(=O)c4cccc(-c5cn[nH]c(=O)c5)c4)c3)cc(C(F)(F)F)c2)cn1.O=C(O)C(F)(F)F | 8.75
O=C(Cn1cc([N+](=O)[O-])cn1)N1CCc2ccccc2C1 | -2.02
COc1cc2c(cc1NC(=O)COC(=O)[C@@H](NC(=O)c1ccccc1)C(C)C)oc1ccccc12 | 1.32
Cc1ccc(F)c([C@H]2[C@H]3C=CC[C@@H](C)[C@@H]3C(=O)N2Cc2ccccc2)c1 | -10.5
COc1ccc(COc2ccccc2C(N)=O)cc1F | 3.05
O=C(COC(=O)c1cccnc1)Nc1ccc(F)cc1 | 1.87
CCOc1ccccc1OCCn1nc2ccccc2n1 | 6.37
O=C(O)C1=CC[C@@H](c2ccc(Cl)cc2)N(S(=O)(=O)c2ccc(Cl)cc2)C1 | 21.6
COc1cccc(N2CC(O)Cn3c2nc2c3c(=O)[nH]c(=O)n2C)c1 (centres unmarked) | 6.32
CCC(=O)c1ccc(OCC(=O)NCC2(N3CCCCC3)CCCCC2)cc1 | -51.5
CSC(SC)=C(C#N)C(=O)c1ccccc1 | 4.47
Cc1oc2ccc(NS(=O)(=O)c3cccc4cccnc34)cc2c1C(=O)OC(C)C | 22.3
CC(=O)c1ccc(N2CCN(C(=O)c3c(-c4ccccc4Cl)noc3C)CC2)cc1 | -10.4
O=C1CCC(Cc2ccccc2)N1 (centres unmarked) | 16.1
CCCCn1c(-c2nn(C)cc2Cl)n[nH]c1=S | 6.61
CCCCC(NC(=O)Cc1c(C)c2cc3c(-c4ccccc4)coc3c(C)c2oc1=O)C(=O)O (centres unmarked) | 13.2
O=C(O)C(=O)O.O=C(c1cccc(Cl)c1)N1CCN(Cc2c[nH]c3ccccc23)CC1 | -20.4
O=C(NCC1CCCO1)c1ccc2nc(N3CCCCC3)sc2c1 (centres unmarked) | -27.2
CN(Cc1ccccc1)c1ncnc2ccc(Br)cc12 | -27

Reference: paper PMC4336329 (PLoS ONE, 2015)
